Measurements from the RNAGym collection of RNA variant scans (doi:10.1093/nar/gkz1192).
Read counts are not given, so values of variants with three or more changes are uncertain.

B1: CPEB3 Ribozyme (parent)
chain: UAACAGGGGGCCACAGCAGAAGCGUUCACGUCGCAGCCCCUGUCAGAUUCUGGUGAAUCUGCGAAUUCUGCUGUAUAUCUC

Variants of: B1
Experiment: self-cleavage, relative activity (ratio to wild type); higher = more cleavage; in vitro, sequencing
Method in brief: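 For each CPEB3 ribozyme variant, relative activity is its cleaved/total read fraction divided by the unmutated ribozyme's. Barcoded error-prone PCR libraries were transcribed by T7 RNA polymerase (5 hours, 37°C) and held in DNase I for 15 min before an EDTA stop, with cleavage occurring throughout. Template-switching reverse transcription and Illumina sequencing were used to read the RNAs. A 5-read minimum applied, and results are the mean of three batches.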
UAGCAAGGGGCCACAGCUGAAGCGUUCACGUCGCAGCCCCUGUCAGAUUCUGGUGAAUCUGCGAAUUCUGCUGUAUAUCUC showed a self-cleavage of 0.09.
UAGCAGAGGGCCACAGCAGAAGCGUUCAUGUCGCGGCCCCUGUCAGAUUCUGGUGAAUCUGCGAAUUCUGCUGUAUAUCUC gave a self-cleavage of 0.1.
Work on UAGCAGUGGGCCACAGCAGAAGCGUUCACGUCGCAGACCCUGUCAGAUUCUGGUGAAUCUGCGGAUUCUGCUGUAUAUCUC yielded a self-cleavage of 0.05.
Work on UAGCAGGGGGCCACAGCAGAAGCGUUCACGUCGCAGCUCCUGUCUGAUUCUGGUGAAUCUGCGAAUUCUGCUGUAUAUCUC yielded a self-cleavage of 0.16.
With UAGCAGAGGGCCACAGCAGAAGCGUUCACGUCGCAGCCCCUGUCAGACUCUGGUGAAUCUGCGAAUUCUGCUGUAUAUCUC the self-cleavage was 0.51.
UAGCAGGAGGCCACGGCAGAAGCGUACACAUCGCAGCCCCUGUCAGAUUCUGGUGAAUCUGCGAAUUCUGCUGUAUAUCUC gave a self-cleavage of 0.63.
Work on UAGCAGUGGGCCACAGCAGAAGCGUUCACGUCGCAGCCCCUGUCAGAUUCUGGUGAAUCUGCGAUUUCUGCUGUAUAUCUC yielded a self-cleavage of 0.15.
With UAGCAGGGGGCCACAGCAGAAGCGUUCACGUCGCAGCACCUGUCAGAUUCUGGCGAAUCUACGAAUUCUGCUGUAUAUCUC the self-cleavage was 0.11.
UAGCAGGGGGCCACAGCAGAAGCGUUCACGUCGCAGCUCCUGUCAGACUCUGGUGAAUCUGCGAAUUCUGCUGUAUAUCUC showed a self-cleavage of 0.46.
UAGCACGGGGCCACAGCAGAAGCGUUCACGUCGCAGCCCCUGUCGGAUUCUGGUGGAUCUGCGAAUUCUGCUGUAUAUCUC gave a self-cleavage of 0.08.
Variant UAGCAAGGGGCCACAGCAGAAGCGUUCACGUCGCUGCCCCUGUCAGAUUCUGGUGAAUCUGCGAAUUCUGCUGUAUUUCUC has a self-cleavage of 0.13.
For UAGCAGUAGGCCACAGCAGAAGCGUACACGACGCAGCCCCUGUCAGAUUCUGGUGAAUCUGCGAAUUCCGCUGUAUAUCUC, the self-cleavage was 0.06.
For UAGCAGGGGGCCACAGCAGAAGCGUUCACGUCGCAGCCCCUGUCAGAUUAUGGUGAAUCUACGAAUUCUGCUGUACAUCUC, the self-cleavage was 0.5.
Variant UAGCAGCGGGCCACAGCUGAAGCGUUCACGUCGCAGCCCCUGUCAGAUUCUGGUGUAUCUGCGAAUUCUGCCGAAUAUCCC has a self-cleavage of 0.03.
Work on UAGCAAGGGGGUACAGCAGAAGCGCUCACGUCGCAGCCCCUGUCAGAUUCUGGUGAAUCUGCGAAUUCUGCUGUAUAUCUC yielded a self-cleavage of 0.48.
With UAGCAAGGGGCCACAUCAGAAGCGUUCACGUCGCAGCCCCUGUCAGAUUCUGGUGAGUCUAUGAAUUCCGCUGUAUAUCUC the self-cleavage was 0.04.
With UAGCAGGGGGCCACAGCAGAAGCGUUCACGUCGCAGCCCGUGUCAGUUUCUGGUGAAUCUGCGAAUUCCGCUGUAUAUCUC the self-cleavage was 0.47.
In the case of UAGCAAGGGGCAACAGCAGAAGCGUUCACGUCGCAGCCCCUGCCAGAUUCUGGUGAAUCUGCGAAUUCUGCUGAAUACCUC, the self-cleavage is reported as 0.05.
UAGCAGGGGGCCACAGCAGAAGCGUUCACGUCGCAGCCUUUGUCAGAUUCUGGUGAAUCUGCGAAUUCUGCUGUAUAUCUC showed a self-cleavage of 0.27.
For UAGCAAGGGGCCACUGCAGAAGCGUUCACGUCGCAGCCCCAGUCUGAUUCUGGUGAAUCUGCGAAUUCUGCUGUAUAUCUC, the self-cleavage was 0.12.
UAGCAUGGGGCCACAGCAGAAGCGUUCACGUCGCAGCCCCUGUCAGAUUCUGGUGAAUAUGCGAAUUCUGCUGUAUAUCUC gave a self-cleavage of 0.38.
With UAGCAGGGGGCCACAGCAGAAGCGUUCACGUCGCAGCCCCUGUCAGAUUCUGGUGAAUCUGCGAAUUCUGAUGUAUACGUC the self-cleavage was 0.25.
UAGCAGGGGGCCACAGCAGAAGCGUUCACGUCGCAGCCCCUGUCAGAUUCUGGUGAAUGUGCGAAUUCCGCUGUAUAUCUC gave a self-cleavage of 0.35.
With UAGCAAGGGGCCACUACAGAAGCGUUCACGUCACAGCCCCUGUCAGAUUCUGGUGAAUCUGCGAAUUCUGAUGUAUAUCUC the self-cleavage was 0.15.
UAGCAGAGGGCCACAGCAGAAGCGUUCACGUCGCAGCCCCUGUCAGACUCUGGUGAAUCUGCGAAUUCUGCUGAAUAUCUC gave a self-cleavage of 0.09.
Variant UAGCACGGGGCCACAGCAGAAGCGUUCACGUCGCAGCCCCUGUCAGAUUCUGGUGAAUCUGCGAGUUCUGCUGUAUAUCUC has a self-cleavage of 0.56.
Work on UAGCAAGGGGCCACAGCAGAAGCGUUCGCGUCGCAGCCCCUGUCAGAUUCUGGUGAAUCUGCGAAUUCAGCUGUAUAUCUC yielded a self-cleavage of 0.02.
Variant UAGCAGCGGGCCACAGCAGAAGCGUUCACGUCGCAGCCCCUGUCAGAUUCAGGUGAAUCUGCGAAAUCUGCUGUAUAUCUC has a self-cleavage of 0.36.
In the case of UAGCAAGGGGCCACAGCAGAAGCGUUCACGUCGCAGCCCCUGUCAGAUUCUGGCGAAUCUGCGAAUUCUGCUGUAUAUCUC, the self-cleavage is reported as 0.2.
With UAGCAGCGGGCCACAGCAGAAGCGUUCACGUCGCAGCCCCCGUCAGAUUCUGGUGAAUCUGCGAAUUCUGCUGUAUAUCUC the self-cleavage was 0.11.
Variant UAGCAGGGGGCCACAGCAGAAGCGUUCACGUCGCAGCCCCUGUAAGAUUCUGGUGAAUCUGCGAAUUCUGCUGUAUAGCUC has a self-cleavage of 0.3.
Variant UAGCAUGGGGCCACAGCAGAAGCGCUCGCGUCGCAGCCCCUGCCAGAUUCUGGUGAACCUGCGAAUUCUGCUGUAUAUCUC has a self-cleavage of 0.21.
UAGCACGAGGCCACAGCAGAAGCGUUCACGUCGCUGCCCCUGUCGGAUUCUGGUGAAUCCGCGAAUUCCGCUGUAUAUCUC gave a self-cleavage of 0.05.
In the case of UAGCAAGGGGCCACAGCAGAAGCGCUCACGUCGCAGCCCCUGUCAGAUUCUGGUGAAUCUGCGACUUCUGCUGUAUAUCUC, the self-cleavage is reported as 0.41.
